Assay results taken from PubChem BioAssay (NCATS).
Values joined by “and” are separate entries in the source; they are usually repeats but may differ in a detail not shown here. Equal entries are not always repeated. The inconclusive results got no clear call from the source; some entries with a clear call stand among them for comparison. A potency beside an inconclusive call is a rough fit, not a confirmed value. Active and inactive are the calls of the source. Unless noted, calls come from the whole dose curve; as a rule, active = well fitted curve in the direction sought with a large enough effect; inconclusive = small, poorly fitted or top-dose-only effect, or another doubt; inactive = no such curve, though single readings can be large; an effect the other way counts as inactive or inconclusive.

molecular target: Cytochrome P450 2C9 (Homo sapiens) (UniProt P11712); assay: Cytochrome P450 family 2 subfamily C member 9 (CYP2C9) small molecule antagonists: luciferase biochemical (cell-free) qHTS assay (AID 1645842; active = well fitted curve in the direction sought with a large enough effect in the repeat runs; inconclusive = weak or mixed curves; inactive = no such curve, though single readings can be large; an effect the other way counts as inactive or inconclusive; note: nearly all actives have a fitted effect of over 55% in size); details: P450-Glo CYP2C9 enzyme assay, luciferin luminescence; series mostly up to 57.4 µM
Chain of UniProt P11712 (P11712 whole entry, looked up): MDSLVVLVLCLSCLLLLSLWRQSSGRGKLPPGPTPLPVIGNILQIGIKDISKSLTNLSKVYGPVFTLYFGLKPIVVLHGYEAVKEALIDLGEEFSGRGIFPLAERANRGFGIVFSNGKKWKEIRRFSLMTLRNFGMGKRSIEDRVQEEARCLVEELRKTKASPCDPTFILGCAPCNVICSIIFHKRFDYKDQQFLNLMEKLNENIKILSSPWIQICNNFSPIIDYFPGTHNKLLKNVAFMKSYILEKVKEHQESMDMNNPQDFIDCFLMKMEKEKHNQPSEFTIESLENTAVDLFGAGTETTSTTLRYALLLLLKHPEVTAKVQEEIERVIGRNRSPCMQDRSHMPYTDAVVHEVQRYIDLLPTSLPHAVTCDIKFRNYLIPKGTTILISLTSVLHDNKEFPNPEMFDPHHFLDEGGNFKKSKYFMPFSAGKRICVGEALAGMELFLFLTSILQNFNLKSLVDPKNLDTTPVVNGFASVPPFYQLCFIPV
Method in brief: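 Luminescence, after 20 min with luciferin detection reagent, reflected CYP2C9 turnover during a 1 h NADPH-driven reaction at 37C. Enzyme-substrate mix contained 0.4% bovine serum albumin and was preincubated with compound 10 min at room temperature.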
Potency is the fitted concentration of half-maximal effect; tags give direction and shape of the fitted curve.

SMILES | Potency
CC(=O)NC1=NN(C(C)=O)C(C)(c2ccccc2)S1 (stereo not given) | inconclusive: 37.9 µM [inhibitor, single point]
COc1ccnc(CS(=O)c2nc3cc(OC(F)F)ccc3[nH]2)c1OC (stereo not given) | inconclusive: 9.52 µM [inhibitor, partial curve, poor fit]
Cc1ccc(Nc2c(F)cccc2Cl)c(CC(=O)O)c1 | inconclusive: 21.9 µM [inhibitor, single point]
Cc1nc2c(C(F)(F)F)cccc2nc1-c1ccc(-c2cccc(S(C)(=O)=O)c2)cc1 | inconclusive: 9.52 µM [inhibitor, partial curve]

system: not listed separately; assay: Primary qHTS for inhibitors of nuclear receptor binding SET domain protein 2 (NSD2) in an isogenic RCH-ACV NSD2 p.E1099K mutant (9B) (AID 1645876); details: RCH-ACV (leukaemia line) NSD2 E1099K (9B) viability, CellTiter-Glo, 72 h; series mostly up to 44.9 µM; note: nearly all actives have a fitted effect of over 70% in size

SMILES | Potency
CC(=O)NC1=NN(C(C)=O)C(C)(c2ccccc2)S1 (stereo not given) | active: 4.59 µM
CC(CCC1(O)OC2CC3C4CC=C5CC(O[C@@H]6O[C@H](CO)[C@@H](O[C@@H]7O[C@@H](C)[C@H](O)[C@@H](O)[C@H]7O)[C@H](O)[C@H]6O[C@@H]6O[C@@H](C)[C@H](O)[C@@H](O)[C@H]6O)CCC5(C)C4CCC3(C)C2C1C)CO[C@@H]1O[C@H](CO)[C@@H](O)[C@H](O)[C@H]1O (stereo not given in full) | inconclusive: 4.88 µM [inhibitor, single point]
COc1ccnc(CS(=O)c2nc3cc(OC(F)F)ccc3[nH]2)c1OC (stereo not given) | inactive
Nc1cccc(CNC(=O)c2ccc(Oc3ccc(OCc4cccc(F)c4)cc3)nc2)c1 | active: 11.5 µM
C=C1C(=O)O[C@H]2/C=C(/C)[C@@H](OC(C)=O)C/C=C(\C)C[C@@H](OC(=O)/C(=C/C)COC(=O)/C(=C/C)CO)[C@@H]12 | active: 1.78 µM
CC(Nc1ncnc2nc[nH]c12)c1cc2cccc(Cl)c2c(=O)n1-c1ccccc1 (stereo not given) | active: 0.332 µM
O=C1CSc2ccccc2N1Cc1cccc(C(F)(F)F)c1 | inconclusive: 12.9 µM [inhibitor, partial curve, poor fit]
COc1ccc(Cc2cnc(N)nc2N)cc1OC | inactive
C/C1=C\CCC2=CC(OC2=O)C(C)(C)/C=C/C1=O (stereo not given) | active: 6.49 µM
COc1ccc2nccc(C(=O)CC[C@@H]3CCN(CC#Cc4cc(F)cc(F)c4F)C[C@@H]3C(=O)O)c2c1 | inconclusive: 29 µM [inhibitor, single point]
Cc1c(NC(=O)c2cc(C(N)=O)nc3cc(F)ccc23)c(C(F)(F)F)nn1Cc1ccc(C#N)cc1 | inconclusive: 4.17 µM [inhibitor, partial curve]
CN1CCc2cccc3c2[C@H]1Cc1ccc(O)c(O)c1-3 | active: 6.68 µM
Cc1ccc(Nc2c(F)cccc2Cl)c(CC(=O)O)c1 | inconclusive: 29.9 µM [inhibitor, single point] and inconclusive: 23 µM [inhibitor, partial curve, poor fit]
CCNC(=O)C#Cc1ccc2c(C(=Nc3ccc(CN(C)C)cc3)c3ccccc3)c(O)[nH]c2c1 | active: 0.512 µM
CC(=O)NCC(=O)N1C2CCC1c1cc(Nc3ncc(C(F)(F)F)c(NC4CCC4)n3)ccc12 (stereo not given) | active: 0.0728 µM
Cc1c(NC(=O)OCC2COCCN2)cn2ncnc(Nc3ccc4c(cnn4Cc4cccc(F)c4)c3)c12 (stereo not given) | active: 14.5 µM and active: 18.6 µM
